Some of the results follow.

The source of these data is article PMC12820563, “FoxP3 forms a head-to-head dimer in vivo and stabilizes its multimerization on adjacent microsatellites”.

For this assay, the target named is T1, MBP-FoxP1dN (Mus musculus, UniProt P58462 326-579).
T1 sequence: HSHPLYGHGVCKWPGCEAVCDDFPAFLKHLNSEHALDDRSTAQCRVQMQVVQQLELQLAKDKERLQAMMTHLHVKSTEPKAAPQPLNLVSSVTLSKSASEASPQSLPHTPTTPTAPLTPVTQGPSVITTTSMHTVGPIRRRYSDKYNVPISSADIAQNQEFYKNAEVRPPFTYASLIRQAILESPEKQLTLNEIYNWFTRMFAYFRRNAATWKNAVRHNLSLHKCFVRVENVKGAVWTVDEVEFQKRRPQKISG
Briefly: PD-seq (MBP pull-down with sequencing); 20 mM Tris-HCl pH 7.5, 100 mM NaCl, 1.5 mM MgCl2, 0.4 uM protein, 0.1 uM dsDNA library, 30 min, room temperature, amylose pull-down; high values mean tight binding. The following applies: protein: recombinant; tags: His6-MBP; chain copies: 2; dsDNA, one strand shown. In short, it runs like this:
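Protein and DNA were mixed at 0.4 µM and 0.1 µM and held for 30 min at room temperature in Tris pH 7.5 buffer with NaCl and MgCl2; the protein was a His6-MBP-tagged, N-terminally truncated mouse FoxP3 or FoxP1 fragment from E. coli, and the DNA a Klenow-filled double-stranded degenerate library. Amylose resin captured the complexes, which were washed three times. Binding is read as reads-per-million enrichment of pull-down versus input after Illumina sequencing, with replicates pooled.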
In the case of “GATGATTGTTCTCCCAGCTGATGAATTTCCATTGTCGAGTAAACAAATTTTCCTAATCTTTCTGTTCAAGCGCCATCTAC”, the binding signal is 0.931 RPM ratio (pull-down/input).

Take “GATGATTGTTCTCCCAGCTGATGAATTCTGTAAATCGAGTAAACAAATTTTCCTAATCTTTCTGTTCAAGCGCCATCTAC”: the binding signal is 1.18 RPM ratio (pull-down/input).

Take “GATGATTGTTCTCCCAGCTGATGAATTCTTCAAGTCGAGTAAACAAATTTTCCTAATCTTTCTGTTCAAGCGCCATCTAC”: the binding signal was 0.861 RPM ratio (pull-down/input).

Consider “GATGATTGTTCTCCCAGCTGATGAATTGGTTTCCTCGAGTAAACAAATTTTCCTAATCTTTCTGTTCAAGCGCCATCTAC”, for which the binding signal was 0.889 RPM ratio (pull-down/input).

“GATGATTGTTCTCCCAGCTGATGAATTACGGCGTTCGAGTAAACAAATTTTCCTAATCTTTCTGTTCAAGCGCCATCTAC”: the binding signal is 1.01 RPM ratio (pull-down/input).

For the sequence “GATGATTGTTCTCCCAGCTGATGAATTCGAGTACTCGAGTAAACAAATTTTCCTAATCTTTCTGTTCAAGCGCCATCTAC”, the binding signal was 0.869 RPM ratio (pull-down/input).

Turning to “GATGATTGTTCTCCCAGCTGATGAATTTATCAATTCGAGTAAACAAATTTTCCTAATCTTTCTGTTCAAGCGCCATCTAC”, the binding signal is 1.16 RPM ratio (pull-down/input).

Consider “GATGATTGTTCTCCCAGCTGATGAATTCGCGCCCTCGAGTAAACAAATTTTCCTAATCTTTCTGTTCAAGCGCCATCTAC”, for which the binding signal was 0.812 RPM ratio (pull-down/input).

Regarding “GATGATTGTTCTCCCAGCTGATGAATTCAAGCAATCGAGTAAACAAATTTTCCTAATCTTTCTGTTCAAGCGCCATCTAC”, the binding signal was 1.13 RPM ratio (pull-down/input).

In the case of “GATGATTGTTCTCCCAGCTGATGAATTTTCGCCGTCGAGTAAACAAATTTTCCTAATCTTTCTGTTCAAGCGCCATCTAC”, the binding signal was 0.852 RPM ratio (pull-down/input).

With “GATGATTGTTCTCCCAGCTGATGAATTTGTTTTATCGAGTAAACAAATTTTCCTAATCTTTCTGTTCAAGCGCCATCTAC”, the binding signal is 1.78 RPM ratio (pull-down/input).

With “GATGATTGTTCTCCCAGCTGATGAATTACTTAAGTCGAGTAAACAAATTTTCCTAATCTTTCTGTTCAAGCGCCATCTAC”, the binding signal is 1.09 RPM ratio (pull-down/input).

Take “GATGATTGTTCTCCCAGCTGATGAATTGTCCCGTTCGAGTAAACAAATTTTCCTAATCTTTCTGTTCAAGCGCCATCTAC”: the binding signal is 0.975 RPM ratio (pull-down/input).

Consider “GATGATTGTTCTCCCAGCTGATGAATTTTGCAAATCGAGTAAACAAATTTTCCTAATCTTTCTGTTCAAGCGCCATCTAC”, for which the binding signal is 1.09 RPM ratio (pull-down/input).

For “GATGATTGTTCTCCCAGCTGATGAATTACGTCGGTCGAGTAAACAAATTTTCCTAATCTTTCTGTTCAAGCGCCATCTAC”, the binding signal is 0.929 RPM ratio (pull-down/input).

Regarding “GATGATTGTTCTCCCAGCTGATGAATTAGTAGCATCGAGTAAACAAATTTTCCTAATCTTTCTGTTCAAGCGCCATCTAC”, the binding signal is 1.23 RPM ratio (pull-down/input).

As to “GATGATTGTTCTCCCAGCTGATGAATTACAGGAATCGAGTAAACAAATTTTCCTAATCTTTCTGTTCAAGCGCCATCTAC”, the binding signal was 1.18 RPM ratio (pull-down/input).

As to “GATGATTGTTCTCCCAGCTGATGAATTAAGACAATCGAGTAAACAAATTTTCCTAATCTTTCTGTTCAAGCGCCATCTAC”, the binding signal is 1.29 RPM ratio (pull-down/input).

For “GATGATTGTTCTCCCAGCTGATGAATTGGAGTGTTCGAGTAAACAAATTTTCCTAATCTTTCTGTTCAAGCGCCATCTAC”, the binding signal was 0.947 RPM ratio (pull-down/input).

“GATGATTGTTCTCCCAGCTGATGAATTTACTCTGTCGAGTAAACAAATTTTCCTAATCTTTCTGTTCAAGCGCCATCTAC”: the binding signal is 1.22 RPM ratio (pull-down/input).

Regarding “GATGATTGTTCTCCCAGCTGATGAATTATGTGGTTCGAGTAAACAAATTTTCCTAATCTTTCTGTTCAAGCGCCATCTAC”, the binding signal is 1.07 RPM ratio (pull-down/input).

Turning to “GATGATTGTTCTCCCAGCTGATGAATTGGGTTCTTCGAGTAAACAAATTTTCCTAATCTTTCTGTTCAAGCGCCATCTAC”, the binding signal is 0.826 RPM ratio (pull-down/input).

For the sequence “GATGATTGTTCTCCCAGCTGATGAATTGGGTACGTCGAGTAAACAAATTTTCCTAATCTTTCTGTTCAAGCGCCATCTAC”, the binding signal is 0.832 RPM ratio (pull-down/input).

Consider “GATGATTGTTCTCCCAGCTGATGAATTGTGTCTTTCGAGTAAACAAATTTTCCTAATCTTTCTGTTCAAGCGCCATCTAC”, for which the binding signal was 1.22 RPM ratio (pull-down/input).

On to “GATGATTGTTCTCCCAGCTGATGAATTCAAAAACTCGAGTAAACAAATTTTCCTAATCTTTCTGTTCAAGCGCCATCTAC”, for which the binding signal is 0.865 RPM ratio (pull-down/input).

“GATGATTGTTCTCCCAGCTGATGAATTCGCTTGATCGAGTAAACAAATTTTCCTAATCTTTCTGTTCAAGCGCCATCTAC”: the binding signal is 0.889 RPM ratio (pull-down/input).

As to “GATGATTGTTCTCCCAGCTGATGAATTAACTTGTTCGAGTAAACAAATTTTCCTAATCTTTCTGTTCAAGCGCCATCTAC”, the binding signal is 0.918 RPM ratio (pull-down/input).

“GATGATTGTTCTCCCAGCTGATGAATTGAAAGCATCGAGTAAACAAATTTTCCTAATCTTTCTGTTCAAGCGCCATCTAC”: the binding signal is 1.2 RPM ratio (pull-down/input).

On to “GATGATTGTTCTCCCAGCTGATGAATTTCCGTTTTCGAGTAAACAAATTTTCCTAATCTTTCTGTTCAAGCGCCATCTAC”, for which the binding signal is 1.01 RPM ratio (pull-down/input).

Consider “GATGATTGTTCTCCCAGCTGATGAATTTGGGACATCGAGTAAACAAATTTTCCTAATCTTTCTGTTCAAGCGCCATCTAC”, for which the binding signal is 0.977 RPM ratio (pull-down/input).

“GATGATTGTTCTCCCAGCTGATGAATTAGGTCCCTCGAGTAAACAAATTTTCCTAATCTTTCTGTTCAAGCGCCATCTAC”: the binding signal was 0.835 RPM ratio (pull-down/input).
